# From the supplement of paper PMC9446081
# Hit rate of the full screen: of about 39,000 compounds, about 220 (0.56%) showed activity. The list shows a part of the results.
# Tested on: Escherichia coli K-12 BW25113
# Test: relative growth (OD600 normalised to plate interquartile mean) (fraction); higher = less growth inhibition, active = 0.2 or less
# Conditions: 50 µM; LB; incubation time: overnight (16-24 h)
# 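Further: static incubation at 37 °C against the wild-type strain, values averaged over two biological replicates.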
row,Structure (SMILES),relative growth
1,C[C@H]1CN([C@@H](C)CO)S(=O)(=O)c2ccc(C#Cc3ccc(F)cc3)cc2O[C@@H]1CN(C)S(C)(=O)=O,inactive: 1.02
2,COc1ccc(S(=O)(=O)Nc2ccc3c(c2)C(=O)N([C@@H](C)CO)C[C@H](C)[C@@H](CN(C)Cc2ccc(Cl)c(Cl)c2)O3)cc1,inactive: 0.97
3,COC(=O)C(CC#Cc1ccc2c(c1)[C@]1(C(=O)N2)[C@H](c2ccccc2OCCO)N2[C@H](c3ccccc3)[C@H](c3ccccc3)OC(=O)[C@H]2[C@@H]1C(=O)N1CCc2cc(OC)c(OC)cc2C1)C(=O)OC,inactive: 1.07
4,Cc1ccc(S(=O)(=O)N(C)C[C@@H]2Oc3ccc(NC(=O)CCN4CCOCC4)cc3C(=O)N([C@@H](C)CO)C[C@H]2C)cc1,inactive: 0.999
5,NCCCc1nc2c(s1)CCCC2,inactive: 0.998
6,CC(C)NC(=O)Nc1ccc2c(c1)C(=O)N([C@@H](C)CO)C[C@H](C)[C@@H](CN(C)Cc1ccc(-c3ccccc3)cc1)O2,inactive: 0.981
7,O=C(C[C@H]1NC(=O)NC1=O)Nc1ccccc1,inactive: 1.01
8,CC(C)CC#Cc1ccc2c(c1)O[C@H](CN(C)S(=O)(=O)c1cccc(F)c1)[C@@H](C)CN([C@H](C)CO)S2(=O)=O,inactive: 1.02
9,CC(C)NC(=O)N(C)C[C@H]1OCCCC[C@@H](C)Oc2ccc(NC(=O)Nc3ccc(C(F)(F)F)cc3)cc2C(=O)N([C@H](C)CO)C[C@@H]1C,inactive: 0.986
10,CN(C)CC#Cc1ccc([C@H]2[C@H]3CN(C(=O)c4cccnc4)CC(=O)N3[C@H]2CO)cc1,inactive: 0.989
11,COc1ccccc1CN1C(=O)c2ccccc2[C@@]2(Cc3ccccc3N(CC(C)C)C2=O)[C@@H]1c1ccc(CO)cc1,inactive: 1.01
12,C[C@@H]1CN([C@@H](C)CO)C(=O)c2cc(C3=CCCCC3)cnc2O[C@@H]1CN(C)S(=O)(=O)c1cn(C)cn1,inactive: 0.986
13,C[C@H]1CN([C@@H](C)CO)S(=O)(=O)c2ccc(C3=CCCC3)cc2O[C@@H]1CN(C)C(=O)c1cnccn1,inactive: 1.02
14,COc1ccc(S(=O)(=O)Nc2ccc3c(c2)C(=O)N([C@@H](C)CO)C[C@H](C)[C@H](CN(C)S(=O)(=O)c2cccs2)O3)cc1,inactive: 0.999
15,COc1ccccc1NC(=O)N(C)C[C@H]1Oc2ncc(Br)cc2C(=O)N([C@H](C)CO)C[C@@H]1C,inactive: 0.988
16,CC(C)NC(=O)N(C)C[C@H]1Oc2ccc(NC(=O)Nc3ccc4c(c3)OCO4)cc2CC(=O)N([C@H](C)CO)C[C@H]1C,inactive: 0.974
17,C[C@@H]1CN([C@H](C)CO)C(=O)Cc2cc(NS(=O)(=O)c3cn(C)cn3)ccc2O[C@H]1CN(C)Cc1ccncc1,inactive: 0.968
18,COc1ccc(S(=O)(=O)N(C)C[C@@H]2Oc3c(NC(=O)c4ccncc4)cccc3C(=O)N([C@H](C)CO)C[C@H]2C)cc1,inactive: 0.986
19,COc1ccc(C[C@H](N)C(=O)N[C@H]2[C@@H](O)[C@@H](n3cnc4c(N(C)C)ncnc43)O[C@@H]2CO)cc1,inactive: 0.748
20,COc1ccc(S(=O)(=O)Nc2ccc3c(c2)C(=O)N([C@H](C)CO)C[C@@H](C)[C@H](CN(C)Cc2ccc(-c4ccccc4)cc2)O3)cc1,inactive: 1.04

row,Structure (SMILES),relative growth
1,COc1ccc(S(=O)(=O)N(C)C[C@H]2Oc3ccc(NC(=O)CCCN(C)C)cc3CC(=O)N([C@H](C)CO)C[C@H]2C)cc1,inactive: 0.973
2,Cc1noc(C)c1NC(=O)Nc1cccc2c1O[C@H](CN(C)C(=O)Nc1ccc(C(F)(F)F)cc1)[C@@H](C)CN([C@H](C)CO)C2=O,inactive: 0.99
3,COc1ccc2c3c([nH]c2c1)[C@@H](CO)N(C[C@]13CCN(CC1)C(=O)c1cnccn1)C(=O)c1cnccn1,inactive: 0.988
4,CCS(=O)(=O)N1C[C@]2(CCN(CC2)C(=O)Nc2c(noc2C)C)c2c(n(c3cc(ccc23)OC)C)[C@H]1CO,inactive: 0.983
5,CCc1nnc(SCC(=O)OC)[nH]1,inactive: 0.928
6,CN(C)CC(=O)N[C@@H]1CC[C@@H](CCNC(=O)C2CC2)O[C@@H]1CO,inactive: 0.991
7,CC(C)NC(=O)N(C)C[C@@H]1Oc2c(NC(=O)NC3CCCCC3)cccc2C(=O)N([C@H](C)CO)C[C@@H]1C,inactive: 0.983
8,C[C@@H]1CN([C@@H](C)CO)C(=O)CCCn2cc(nn2)CO[C@H]1CN(C)C(=O)c1ccc(N2CCN(C)CC2)cc1,inactive: 1.01
9,O=C(C[C@@H]1CC[C@H]2[C@@H](COC[C@@H](O)CN2S(=O)(=O)c2cccc(Cl)c2)O1)NCc1ccc2c(c1)OCO2,inactive: 0.991
10,O=C(C[C@H]1CC[C@H]2[C@@H](COC[C@@H](O)CN2S(=O)(=O)c2cccc(Cl)c2)O1)NCCCN1CCOCC1,inactive: 1.01
11,COc1ccc(NC(=O)Nc2ccc3c(c2)C(=O)N([C@@H](C)CO)C[C@@H](C)[C@@H](CN(C)C(=O)Nc2ccccc2)OCCCC[C@H](C)O3)cc1,inactive: 1.02
12,C[C@H](CO)N1C[C@H](C)[C@@H](CN(C)Cc2ccc(Cl)c(Cl)c2)Oc2c(NC(=O)CCCCCC(=O)Nc3ccccc3N)cccc2C1=O,inactive: 1.02
13,C[C@@H]1CN([C@H](C)CO)C(=O)c2cccc(NC(=O)c3ccncc3)c2O[C@H]1CN(C)Cc1ccc(C(=O)O)cc1,inactive: 0.973
14,C[C@H]1CN([C@@H](C)CO)C(=O)c2cc(C#CCN(C)C)cnc2O[C@H]1CN(C)S(=O)(=O)c1ccccc1,inactive: 0.997
15,COc1cccc(NC(=O)N(C)C[C@@H]2Oc3cc(C#Cc4ccncc4)ccc3S(=O)(=O)N([C@@H](C)CO)C[C@H]2C)c1,inactive: 1.03
16,COc1ccc(NC(=O)N(C)C[C@H]2Oc3cc(Br)ccc3S(=O)(=O)N([C@H](C)CO)C[C@@H]2C)cc1,inactive: 0.95
17,C[C@@H]1CN([C@H](C)CO)C(=O)Cc2cc(NC(=O)Cc3cn(C)c4ccccc34)ccc2O[C@@H]1CN(C)Cc1ccc(C(F)(F)F)cc1,inactive: 1.05
18,CC(C)NC(=O)N(C)C[C@@H]1OCCCC[C@@H](C)Oc2ccc(NC(=O)Nc3cccc4ccccc34)cc2C(=O)N([C@@H](C)CO)C[C@H]1C,inactive: 1.02
19,COCC#Cc1ccc2c(c1)O[C@H](CN(C)S(=O)(=O)c1ccc(OC)cc1)[C@@H](C)CN([C@@H](C)CO)S2(=O)=O,inactive: 0.998
20,COc1ccc(NC(=O)Nc2ccc3c(c2)C(=O)N([C@H](C)CO)C[C@H](C)[C@@H](CN(C)S(=O)(=O)c2ccccc2)OCCCC[C@@H](C)O3)cc1,inactive: 0.994

row,Structure (SMILES),relative growth
1,CC(C)NC(=O)Nc1ccc2c(c1)CC(=O)N([C@H](C)CO)C[C@@H](C)[C@H](CN(C)Cc1ccc(Oc3ccccc3)cc1)O2,inactive: 0.963
2,CCNC(=O)[C@@H]1[C@@H](CO)[C@@H]2Cn3c(ccc(-c4ccccc4OC)c3=O)[C@@H]2N1S(C)(=O)=O,inactive: 0.989
3,COc1ccc(S(=O)(=O)N[C@H]2CC[C@@H](CC(=O)N3CCN(c4ccccc4)CC3)O[C@@H]2CO)cc1,inactive: 1.03
4,C[C@@H]1CCCCO[C@@H](CN(C)S(=O)(=O)c2cn(C)cn2)[C@@H](C)CN([C@H](C)CO)C(=O)c2cc(NS(=O)(=O)c3ccc(F)cc3)ccc2O1,inactive: 0.999
5,Fc1ccc(-c2n[nH]c(=S)o2)cc1,inactive: 0.932
6,Cc1noc(C)c1NC(=O)Nc1cccc2c1O[C@@H](CN(C)Cc1ccc(-c3ccccc3)cc1)[C@@H](C)CN([C@@H](C)CO)C2=O,inactive: 1.03
7,CC(C)CC#Cc1ccc2c(c1)O[C@@H](CN(C)CC1CCOCC1)[C@H](C)CN([C@@H](C)CO)S2(=O)=O,inactive: 0.999
8,C[C@H](CO)N1C[C@H](C)[C@@H](CN(C)Cc2ccc(C(=O)O)cc2)OCCCC[C@H](C)Oc2ccc(NC(=O)Nc3cccc4ccccc34)cc2C1=O,inactive: 1.05
9,CC(C)NC(=O)N(C)C[C@H]1Oc2ccc(NC(=O)Nc3ccc4c(c3)OCO4)cc2CC(=O)N([C@H](C)CO)C[C@@H]1C,inactive: 1.01
10,C[C@@H]1CN([C@H](C)CO)C(=O)Cc2cc(NC(=O)Cn3cnnn3)ccc2O[C@H]1CN(C)CC1CCCCC1,inactive: 0.97
11,CO[C@H]1CN(C)C(=O)c2ccc(NS(=O)(=O)CC(F)(F)F)cc2OC[C@H](C)N(C(=O)c2ccc3c(c2)OCO3)C[C@@H]1C,inactive: 0.97
12,O=C(C[C@@H]1CC[C@@H]2[C@H](COC[C@H](O)CN2S(=O)(=O)c2ccc(F)cc2)O1)NCCN1CCCCC1,inactive: 0.987
13,[O-][NH2+]N(CCO)CCO,inactive: 0.981
14,C[C@@H]1CN([C@@H](C)CO)C(=O)c2c(c3ccccc3n2C)-c2ccccc2CO[C@@H]1CN(C)C(=O)NC1CCCCC1,inactive: 1
15,COc1ccc(-c2cnc3c(c2)C(=O)N([C@H](C)CO)C[C@H](C)[C@H](CN(C)C(=O)C2CCOCC2)O3)cc1,inactive: 0.986
16,COCC(=O)N1C[C@H](C)[C@@H](OC)CN(C)C(=O)c2ccc(NC(=O)c3ccc(F)cc3)cc2OC[C@H]1C,inactive: 0.985
17,COc1ccc(NC(=O)N(C)C[C@H]2OCCCC[C@H](C)Oc3ccc(NS(=O)(=O)c4cccs4)cc3C(=O)N([C@H](C)CO)C[C@@H]2C)cc1,inactive: 0.999
18,C[C@H](CO)N1C[C@H](C)[C@@H](CN(C)C(=O)Nc2ccc3c(c2)OCO3)Oc2c(NC(=O)C3CC3)cccc2C1=O,inactive: 0.995
19,C[C@@H]1CN([C@@H](C)CO)C(=O)c2cccc(NC(=O)Nc3cccc4ccccc34)c2O[C@@H]1CN(C)Cc1ccc(Cl)c(Cl)c1,inactive: 1.01
